This is an account of results in ChEMBL document CHEMBL5308541, “MAIP: An Open-Source Tool to Enrich High-Throughput Screening Output and Identify Novel, Druglike Molecules with Antimalarial Activity” (ACS Med Chem Lett, 2023).

Screen size: about 150,000 compounds; about 540 (0.36%) showed an effect of 50% or more. This is one part of the list.

The subject of the test is Plasmodium falciparum. As to the kind of experiment: Primary screen in NF54 nanoGlo assay, in single point, at 2uM, 72h; a lower Z score goes with more inhibition. The format is functional, Erythrocyte. The conditions noted are these: timepoint 72 hour.
With `Cc1sc(NC(=O)c2c(C3CCC3)cnn2C)nc1-c1c[nH]c2ncccc12`, the “% Inhibition” value is given as -5% and the Z score worked out at 0.78.
Take `Cc1ccc(-c2ccnc(N3CCC(NCc4nc[nH]c4C)CC3)n2)c(C)n1`: the “% Inhibition” value is on record as 5% and the Z score was -0.7.
For `Cc1cc(Nc2cnn(CC(C)C)c2C2CC2)nc(C2CC2)n1` the same measures were -9% and 1.74.
For `Cc1cc2nc(N3CCC(N4CCC(Oc5cccnc5)CC4)CC3)nc(C)c2cc1C` the same measures were -15% and 2.6.
For `O=C(N[C@H]1CC[C@H](Oc2cnccn2)CC1)c1ccc2[nH]ccc2c1` the same measures were -3% and 0.48.
For `COC(=O)[C@@H](C)Cc1ccc(NC(=O)N(C)C(C)C)cc1`, the “% Inhibition” value is given as -13% and the Z score was 2.25.
For `N[C@H](c1ccccc1)c1nnc(NCc2ccccc2-n2ccnc2)o1` the same measures were 4% and -0.72.
Turning to `Cc1nc(NCCNC(=O)[C@@H]2CCC(=O)N2)cc(Nc2ccccn2)n1`, the “% Inhibition” value is listed as -11% and the Z score came to 1.98.
In the same order, the values of `COc1cc(Br)ccc1CNCC1(OC)CCOCC1` are -9% and 1.92.
For `CCc1ccc(NC(=O)C2CC3(C2)CS(=O)(=O)C3)cc1C` the same measures were -16% and 2.81.
For the compound `CCN1CCN([C@H]2CCN(c3nccc4cc(OC)c(OC)cc34)C2)CC1`, the “% Inhibition” value worked out at 12% and the Z score is -2.08.
Turning to `CN1CCC(CNc2nccc3cccnc23)CC1`, the “% Inhibition” value was found to be 2% and the Z score is given as -0.48.
In the same order, the values of `CN(CC1(CO)CCOCC1)c1nc(-c2cccnc2)nc2c1cnn2C` are 0% and 0.
Consider `COc1cccc([C@@H](CNc2ncnc3c2cnn3C)c2c[nH]c3ccccc23)c1OC`, for which the “% Inhibition” value stood at 7% and the Z score is -1.03.
Consider `OC1CN(C2CCCC2)CC1N1CCN(c2nsc3ccccc23)CC1` (stereo not drawn), for which the “% Inhibition” value was -1% and the Z score is 0.18.
For the compound `C[C@H](O)CN1CCC(CN(C)CCCN2CCOCC2)CC1`, the “% Inhibition” value is reported as -10% and the Z score was 1.8.
For `COC1COCCC1Nc1cc(-c2nc(C)no2)ccn1` (stereo not drawn) the same measures were 5% and -0.98.
In the same order, the values of `Cc1nc(N2C(=O)N[C@](C)(c3ccccc3)C2=O)sc1C` are -1% and 0.26.
Turning to `Nc1nc(N2CCN(Cc3c[nH]cn3)C[C@H](O)C2)c2c[nH]nc2n1`, the “% Inhibition” value is reported as -5% and the Z score is 0.95.
On to `Cn1c(-c2ccccc2)c(-c2csc(Nc3ccccc3C(F)(F)F)n2)c2ccccc21`, for which the “% Inhibition” value is reported as -7% and the Z score is given as 1.2.
As for `CCOc1ccccc1C(=O)N1CC(O)C(Cc2cc(C)[nH]n2)C1` (stereo not drawn), the “% Inhibition” value is recorded as -4% and the Z score came out at 0.67.
For `CC1NCCOC1c1ccc(-c2cnn3ncccc23)cc1` (stereo not drawn), the “% Inhibition” value is -6% and the Z score was 1.01.
For `CN1CCN(c2cc(-c3ccc4c(c3)OC(F)(F)O4)nc(N)n2)CC1` the same measures were 9% and -1.95.
For `CN(C)C1CCCN(CC=CCN2CCCC(N(C)C)C2)C1` (stereo not drawn), the “% Inhibition” value is recorded as -10% and the Z score stood at 1.67.
`Cc1oc2nc1C(=O)N[C@@H](C(C)C)c1nc(cs1)C(=O)NCCNCCCC(=O)N[C@H]2Cc1ccccc1`: the “% Inhibition” value was -4% and the Z score was 0.65.
For `c1cc2ncc(-c3ccc(NCC4CCOCC4)nc3)cn2n1` the same measures were -1% and 0.32.
Consider `Cc1nn(C(C)C)c(C)c1-c1cc(C(=O)NCCc2cn(CCC(C)C)c3ccccc23)n[nH]1`, for which the “% Inhibition” value was found to be 1% and the Z score is -0.17.
Regarding `CCn1cc(CNc2cccc3nc(C(F)F)sc23)cn1`, the “% Inhibition” value came out at 0% and the Z score turned out to be 0.04.
Consider `Nc1nc(Nc2nc(N3CCCC3)cc(C(F)(F)F)n2)cc(C(F)(F)F)n1`, for which the “% Inhibition” value was -7% and the Z score is on record as 1.29.
In the same order, the values of `Cn1c(-c2ccccc2O)cc2ccccc21` are 5% and -0.83.
For `CCCN1CCN(C(C)CCCN(C(=O)C2CCCN(c3nccs3)C2)C2CC2)CC1` (stereo not drawn) the same measures were -9% and 1.94.
Regarding `Cc1c(S(=O)(=O)N2CCC(N3CCCCC3)CC2)cc(-c2nc(-c3ccccc3)cs2)n1C`, the “% Inhibition” value stood at 1% and the Z score is recorded as -0.24.
In the case of `FC(F)(F)CN1CCN(Cc2ccc(-c3cccnc3)cc2)CC1`, the “% Inhibition” value is recorded as 1% and the Z score was -0.11.
For `CS(=O)(=O)Nc1ccc2[nH]c(-c3cccs3)nc2c1` the same measures were -6% and 1.07.
For `Cc1nc(N)sc1-c1cc(-c2c[nH]c3ccccc23)c(C#N)c(N)n1`, the “% Inhibition” value was 1% and the Z score is listed as -0.12.
Regarding `CNc1nc(C)cc(NCCn2c(C)cc3ccccc32)n1`, the “% Inhibition” value worked out at 4% and the Z score was -0.75.
For `Cc1nccc(NCCCc2nc3cc(F)ccc3[nH]2)n1` the same measures were -4% and 0.63.
For `NC(=O)c1ccc2nc(CN3CCCN(C4CCCCC4)CC3)cc(O)c2c1` the same measures were -4% and 0.66.
For `CN1CCc2ncnc(NCCc3cnc4ccccc4c3)c2C1` the same measures were -11% and 1.64.
Turning to `Cc1cc(F)ccc1C1CCN(C(=O)Nc2cnc(N3CCNCC3)nc2)CC1`, the “% Inhibition” value is on record as -4% and the Z score is 0.71.
Turning to `N#CCc1cccc(C(=O)Nc2cnccc2N2CCCCC2)c1`, the “% Inhibition” value was -7% and the Z score came out at 1.46.
In the same order, the values of `CN(C)c1ccc(C(N)=NOCc2ccc(F)c3cccnc23)cc1` are 1% and -0.12.
In the same order, the values of `O=C(NC1CCN(c2nc(-c3cccnc3)cs2)CC1)c1ccc2ncsc2c1` are -7% and 1.28.
Consider `O=C(O)CCN(CCC(=O)O)c1ccc(/C=C/c2ccnc3ccccc23)cc1`, for which the “% Inhibition” value is reported as -11% and the Z score is 1.6.
For `CCCCN1CCC(NC(=O)N(CC)Cc2ccc3[nH]ccc3c2)CC1` the same measures were 5% and -0.83.
With `O=C(CN1CCCN(Cc2ccc3cn[nH]c3c2)CC1)N1CCCC1`, the “% Inhibition” value is 7% and the Z score was -1.19.
For the compound `COc1cccc(NCc2cc(Nc3ccccc3)c3c4c(onc24)-c2ccccc2C3=O)c1OC`, the “% Inhibition” value was -2% and the Z score worked out at 0.3.
As to `O=C(N[C@H](CO)C1CCCCC1)[C@@H]1CCCN1C1CCNCC1`, the “% Inhibition” value is -7% and the Z score is on record as 1.16.
Consider `CCOc1ccc2nc(CN3CC(O)C(Cc4cc(C)no4)C3)ccc2c1` (stereo not drawn), for which the “% Inhibition” value is -11% and the Z score is given as 1.89.
For `O=C(NCC1CCN(Cc2ccc(-c3cccnc3)cc2)CC1)c1ccnnc1` the same measures were 6% and -1.08.
In the same order, the values of `Cn1nc(C2CC2)nc1CNc1cccc(Oc2ccc(Br)cc2)c1` are 3% and -0.61.
Consider `CCn1ccnc(N2CCC(NC(=O)c3cc4cc(F)ccc4[nH]3)CC2)c1=O`, for which the “% Inhibition” value was -7% and the Z score was 1.35.
For `Cc1nc(N2CCCC2)nc(N[C@H]2CCCNC2)c1C` the same measures were 9% and -1.58.
On to `CC1(C)CC(NC(=O)N2CCC[C@H](N3CCCC3)CC2)CC(C)(C)N1`, for which the “% Inhibition” value is on record as -2% and the Z score was 0.41.
